From publication PMC3492431
No constants are given. Whether binding was seen depends on the method and setting. For part of these data: Binding seen in cells or lysates may run through a third protein. Some entries that bind do so weakly or less than the wild type.

By UniProt entry, the sequences of proteins in these tests, tags left out.
UniProt Q62261: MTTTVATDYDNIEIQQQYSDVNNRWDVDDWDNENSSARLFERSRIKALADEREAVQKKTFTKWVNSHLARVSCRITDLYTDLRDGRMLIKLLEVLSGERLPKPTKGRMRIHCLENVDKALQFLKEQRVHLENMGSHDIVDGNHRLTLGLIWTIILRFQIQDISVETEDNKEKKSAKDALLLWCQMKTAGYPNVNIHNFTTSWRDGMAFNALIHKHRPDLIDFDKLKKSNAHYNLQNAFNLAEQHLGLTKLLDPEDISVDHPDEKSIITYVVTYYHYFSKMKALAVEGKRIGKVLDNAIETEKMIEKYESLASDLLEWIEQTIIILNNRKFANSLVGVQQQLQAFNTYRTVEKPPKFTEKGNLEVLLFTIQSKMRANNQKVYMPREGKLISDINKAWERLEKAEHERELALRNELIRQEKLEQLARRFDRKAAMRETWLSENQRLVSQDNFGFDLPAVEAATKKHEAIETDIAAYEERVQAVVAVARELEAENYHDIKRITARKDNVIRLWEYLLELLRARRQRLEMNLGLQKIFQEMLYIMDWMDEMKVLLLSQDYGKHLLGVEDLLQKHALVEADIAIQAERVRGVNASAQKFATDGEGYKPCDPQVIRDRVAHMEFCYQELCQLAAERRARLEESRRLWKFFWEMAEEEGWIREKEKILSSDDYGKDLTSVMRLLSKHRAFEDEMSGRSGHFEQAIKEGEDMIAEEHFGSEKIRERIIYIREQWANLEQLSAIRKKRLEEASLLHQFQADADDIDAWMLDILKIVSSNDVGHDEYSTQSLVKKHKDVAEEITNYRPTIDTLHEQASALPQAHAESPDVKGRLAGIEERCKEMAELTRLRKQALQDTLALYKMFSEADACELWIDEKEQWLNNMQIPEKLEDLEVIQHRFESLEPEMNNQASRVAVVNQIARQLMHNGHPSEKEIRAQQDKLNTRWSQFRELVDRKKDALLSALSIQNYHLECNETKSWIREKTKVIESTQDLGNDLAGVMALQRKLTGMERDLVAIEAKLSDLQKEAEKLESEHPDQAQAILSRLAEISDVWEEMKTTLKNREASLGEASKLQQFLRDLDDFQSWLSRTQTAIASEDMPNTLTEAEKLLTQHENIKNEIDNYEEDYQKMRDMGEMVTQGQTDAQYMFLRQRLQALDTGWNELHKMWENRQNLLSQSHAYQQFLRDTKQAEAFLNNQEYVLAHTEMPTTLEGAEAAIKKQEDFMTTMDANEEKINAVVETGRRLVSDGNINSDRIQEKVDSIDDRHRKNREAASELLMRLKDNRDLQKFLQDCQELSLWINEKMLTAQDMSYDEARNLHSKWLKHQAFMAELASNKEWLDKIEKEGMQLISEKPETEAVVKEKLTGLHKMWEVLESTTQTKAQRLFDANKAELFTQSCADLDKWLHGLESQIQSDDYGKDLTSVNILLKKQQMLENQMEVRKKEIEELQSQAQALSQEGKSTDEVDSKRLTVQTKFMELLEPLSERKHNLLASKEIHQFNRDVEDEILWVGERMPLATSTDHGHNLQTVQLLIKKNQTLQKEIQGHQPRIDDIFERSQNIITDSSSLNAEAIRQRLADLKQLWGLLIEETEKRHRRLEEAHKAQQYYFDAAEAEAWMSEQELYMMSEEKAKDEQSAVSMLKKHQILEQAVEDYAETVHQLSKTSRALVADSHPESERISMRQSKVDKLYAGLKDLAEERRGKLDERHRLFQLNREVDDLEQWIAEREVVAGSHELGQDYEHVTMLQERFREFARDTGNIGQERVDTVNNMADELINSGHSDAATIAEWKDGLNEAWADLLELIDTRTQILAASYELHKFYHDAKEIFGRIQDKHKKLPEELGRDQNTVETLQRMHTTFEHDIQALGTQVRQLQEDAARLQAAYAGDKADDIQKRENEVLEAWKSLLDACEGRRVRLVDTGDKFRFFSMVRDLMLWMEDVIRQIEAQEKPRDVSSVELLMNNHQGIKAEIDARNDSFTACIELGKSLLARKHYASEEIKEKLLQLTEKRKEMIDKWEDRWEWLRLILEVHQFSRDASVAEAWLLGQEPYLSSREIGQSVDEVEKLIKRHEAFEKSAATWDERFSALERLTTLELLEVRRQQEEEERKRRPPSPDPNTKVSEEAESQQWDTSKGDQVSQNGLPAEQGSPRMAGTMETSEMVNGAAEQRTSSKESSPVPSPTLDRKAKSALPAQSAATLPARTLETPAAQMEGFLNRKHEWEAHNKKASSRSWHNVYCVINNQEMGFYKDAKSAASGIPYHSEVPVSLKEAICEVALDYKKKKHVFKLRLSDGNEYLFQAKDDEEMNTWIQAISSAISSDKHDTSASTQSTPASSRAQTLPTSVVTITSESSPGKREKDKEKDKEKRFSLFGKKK

Assays:
[1] = target: T1, mouse filensin (mouse (endogenous in lens)) (UniProt A2AMT1); assay: co-IP; wild-type mouse lens extract in modified RIPA buffer (150 mM NaCl, 1% NP-40, 0.5% sodium deoxycholate, 2 mM EGTA, 50 mM Tris-HCl, pH 7.4); rabbit antiserum to filensin on Protein A MicroBeads, 2 h at 4°C; western blot
T1 sequence: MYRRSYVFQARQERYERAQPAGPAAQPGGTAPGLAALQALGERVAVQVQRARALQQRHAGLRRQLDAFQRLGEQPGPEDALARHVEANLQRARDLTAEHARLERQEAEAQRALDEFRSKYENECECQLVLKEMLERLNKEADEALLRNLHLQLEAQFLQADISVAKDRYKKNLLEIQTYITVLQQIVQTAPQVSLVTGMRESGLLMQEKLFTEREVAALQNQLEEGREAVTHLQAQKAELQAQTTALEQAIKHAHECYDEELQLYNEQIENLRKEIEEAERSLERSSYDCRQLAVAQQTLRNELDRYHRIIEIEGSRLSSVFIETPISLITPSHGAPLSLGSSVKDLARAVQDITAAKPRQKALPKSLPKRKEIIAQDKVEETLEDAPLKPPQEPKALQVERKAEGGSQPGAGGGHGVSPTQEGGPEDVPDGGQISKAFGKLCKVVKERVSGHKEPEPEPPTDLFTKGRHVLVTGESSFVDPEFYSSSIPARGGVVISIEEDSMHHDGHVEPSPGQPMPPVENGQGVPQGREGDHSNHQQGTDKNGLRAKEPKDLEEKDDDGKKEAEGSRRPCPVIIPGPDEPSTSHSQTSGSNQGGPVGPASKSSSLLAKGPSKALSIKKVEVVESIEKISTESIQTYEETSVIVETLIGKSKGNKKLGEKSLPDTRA

[2] = target: T2, mouse tropomodulin 1 (Tmod1), endogenous (mouse (endogenous in lens)) (UniProt P49813); assay: co-IP; wild-type mouse lens extract in modified RIPA buffer (150 mM NaCl, 1% NP-40, 0.5% sodium deoxycholate, 2 mM EGTA, 50 mM Tris-HCl, pH 7.4); affinity-purified rabbit anti-Tmod1 on Protein A MicroBeads, 2 h at 4°C; western blot; preimmune IgG as control
T2 sequence: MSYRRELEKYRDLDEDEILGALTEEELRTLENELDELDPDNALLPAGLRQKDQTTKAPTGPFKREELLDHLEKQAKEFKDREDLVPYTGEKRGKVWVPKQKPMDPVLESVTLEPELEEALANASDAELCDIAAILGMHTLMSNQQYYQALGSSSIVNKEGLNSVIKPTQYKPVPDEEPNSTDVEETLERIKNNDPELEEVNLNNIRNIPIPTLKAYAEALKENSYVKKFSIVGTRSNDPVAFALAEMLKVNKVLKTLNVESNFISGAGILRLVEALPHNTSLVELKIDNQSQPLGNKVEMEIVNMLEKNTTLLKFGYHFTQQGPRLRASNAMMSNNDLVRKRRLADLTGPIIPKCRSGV

[3] = target: T3, mouse CP49 (phakinin) (mouse (endogenous in lens)) (UniProt Q6NVD9); assay: far-Western, overlay or dot blot; mouse lens extracts (CP49+/+ and CP49-/-) separated by SDS-PAGE and transferred to nitrocellulose; blots incubated overnight at 4°C with 2 µg/ml purified recombinant Tmod in OverWash buffer (80 mM KCl, 2 mM MgCl2, 1 mM EGTA, 0.2% Triton X-100, 20 mM Hepes, pH 7.3) + 2% BSA; bound Tmod detected with antisera to Tmod1 or Tmod4; only the binder purified
T3 sequence: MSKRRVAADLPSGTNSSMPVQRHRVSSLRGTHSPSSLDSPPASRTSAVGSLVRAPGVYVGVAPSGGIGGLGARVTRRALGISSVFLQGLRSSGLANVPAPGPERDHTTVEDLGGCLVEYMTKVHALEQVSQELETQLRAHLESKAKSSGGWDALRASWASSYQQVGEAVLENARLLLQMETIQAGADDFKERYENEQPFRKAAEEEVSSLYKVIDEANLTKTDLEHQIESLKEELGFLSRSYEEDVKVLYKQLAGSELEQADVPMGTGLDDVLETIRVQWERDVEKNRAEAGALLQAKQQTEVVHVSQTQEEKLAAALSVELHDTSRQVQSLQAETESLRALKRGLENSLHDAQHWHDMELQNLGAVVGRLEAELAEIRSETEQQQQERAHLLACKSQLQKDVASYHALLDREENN

[4] = target: T1, mouse filensin (mouse (endogenous in lens)); assay: as above
[5] = target: T4, mouse tropomodulin 1 (Tmod1), endogenous (mouse (endogenous in lens)), P49813; assay: co-IP; wild-type mouse lens extract in modified RIPA buffer (150 mM NaCl, 1% NP-40, 0.5% sodium deoxycholate, 2 mM EGTA, 50 mM Tris-HCl, pH 7.4); affinity-purified rabbit anti-Tmod1 on Protein A MicroBeads, 2 h at 4°C; western blot; preimmune IgG as control; conditions: remark: other sources report otherwise
T4 chain: T2 sequence

## β2-spectrin (mouse lens) (from UniProt Q62261 1-2363)
[1]
  binding: binds
[2]
  binding: binds

B1: mouse CP49 (phakinin) (protein, UniProt Q6NVD9 1-416)
chain: T3 sequence
[1]
  binding: binds

B2: purified recombinant human Tmod1 (tropomodulin 1) (protein, UniProt P28289 1-359)
chain: MSYRRELEKYRDLDEDEILGALTEEELRTLENELDELDPDNALLPAGLRQKDQTTKAPTGPFKREELLDHLEKQAKEFKDREDLVPYTGEKRGKVWVPKQKPLDPVLESVTLEPELEEALANASDAELCDIAAILGMHTLMSNQQYYQALSSSSIMNKEGLNSVIKPTQYKPVPDEEPNSTDVEETLERIKNNDPKLEEVNLNNIRNIPIPTLKAYAEALKENSYVKKFSIVGTRSNDPVAYALAEMLKENKVLKTLNVESNFISGAGILRLVEALPYNTSLVEMKIDNQSQPLGNKVEMEIVSMLEKNATLLKFGYHFTQQGPRLRASNAMMNNNDLVRKRRLADLTGPIIPKCRSGV
[3]
  binding: no binding (tested: 2 µg/ml)
[4]
  binding: no binding (tested: 2 µg/ml)

B3: N-cadherin (mouse lens), P15116 160-906 (protein)
chain: DWVIPPINLPENSRGPFPQELVRIRSDRDKNLSLRYSVTGPGADQPPTGIFIINPISGQLSVTKPLDRELIARFHLRAHAVDINGNQVENPIDIVINVIDMNDNRPEFLHQVWNGSVPEGSKPGTYVMTVTAIDADDPNALNGMLRYRILSQAPSTPSPNMFTINNETGDIITVAAGLDREKVQQYTLIIQATDMEGNPTYGLSNTATAVITVTDVNDNPPEFTAMTFYGEVPENRVDVIVANLTVTDKDQPHTPAWNAAYRISGGDPTGRFAILTDPNSNDGLVTVVKPIDFETNRMFVLTVAAENQVPLAKGIQHPPQSTATVSVTVIDVNENPYFAPNPKIIRQEEGLHAGTMLTTLTAQDPDRYMQQNIRYTKLSDPANWLKIDPVNGQITTIAVLDRESPNVKNNIYNATFLASDNGIPPMSGTGTLQIYLLDINDNAPQVLPQEAETCETPEPNSINITALDYDIDPNAGPFAFDLPLSPVTIKRNWTINRLNGDFAQLNLKIKFLEAGIYEVPIIITDSGNPPKSNISILRVKVCQCDSNGDCTDVDRIVGAGLGTGAIIAILLCIIILLILVLMFVVWMKRRDKERQAKQLLIDPEDDVRDNILKYDEEGGGEEDQDYDLSQLQQPDTVEPDAIKPVGIRRLDERPIHAEPQYPVRSAAPHPGDIGDFINEGLKAADNDPTAPPYDSLLVFDYEGSGSTAGSLSSLNSSSSGGDQDYDYLNDWGPRFKKLADMYGGGDD
[5]
  binding: no binding
